From PubChem BioAssay AID1508642 (National Center for Advancing Translational Sciences (NCATS), 2021)
In all, about 43,000 compounds went through this assay and about 200 (0.47%) were called active. Not shown: some 12% with an inconclusive outcome. The call rests on the fitted dose curve; in most records, active means well fitted cell-killing curve with a large enough effect; inconclusive means small, poorly fitted or top-dose-only effect, or effect the other way; inactive means flat fitted curve, though single readings scatter. This is one part of the list.
On the % scale 0 is the no-effect control and ±100 the full control effect.

Assay: Cell viability qHTS assay in S16 Pmp22-F2sN cells; further: nearly all actives have a fitted effect of over 65% in size
Details: S16 Pmp22-F2sN Schwann cells (luciferase reporters placed in the Pmp22 gene) viability, CellTiter-Glo, 24 h; series mostly up to 57.5 µM; activity change, negative = cytotoxicity: at the top concentration
Summary of the method: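 Rat S16 Schwann reporter line, 24 h treatment with library compounds delivered at 23 nL per well. Cell viability by CellTiter-Glo luminescence.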
For `Cc1ccc(C)c(CN2C(=O)C3(c4ccccc42)N(c2ccc(Cl)cc2)C(=O)CS3(=O)=O)c1` (stereo unspecified), the “activity change, negative = cytotoxicity” value was inactive: -5.06%. With `COc1ccc(OCC(=O)NC2CC(=O)N(c3ccc4c(c3)OCCO4)C2)cc1` (stereo unspecified) the “activity change, negative = cytotoxicity” value was inactive: 1.98%. In the case of `COc1ccc(-c2ccc(NS(=O)(=O)c3cccc(C)c3)cc2)nn1`, the “activity change, negative = cytotoxicity” value was inactive: -2.77%. With `Cc1ccccc1-c1nnc(SCC(=O)N(C)C2CCCCC2)o1` the “activity change, negative = cytotoxicity” value was inactive: 6.66%. In the case of `CCNC(=O)c1ccc(CSc2nc3ccncc3n2Cc2ccc(F)cc2)cc1`, the “activity change, negative = cytotoxicity” value was inactive: 0.108%. In the case of `Cc1ccc(NC(=O)N2CCN(c3cc(-c4noc(C)n4)ccc3C)CC2)c(C)c1`, the “activity change, negative = cytotoxicity” value was inactive: 13.1%. For `Cc1cccc(CCNC(=O)CN(c2ccc(C(C)C)cc2)S(=O)(=O)c2c(C)nn(C)c2C)c1`, the “activity change, negative = cytotoxicity” value was inactive: -8.92%. With `CCn1c(C(=O)NCc2cc(Br)ccc2OC)cc2oc3ccccc3c21` the “activity change, negative = cytotoxicity” value was inactive: -3.96%. With `CCN(C(=O)Cn1cnc2onc(-c3ccc(F)cc3)c2c1=O)c1cc(C)ccc1C` the “activity change, negative = cytotoxicity” value was inactive: -1.91%. With `COc1ccc(CCNC(=O)c2ccc3c(c2)nc2n3CCC(C)C2)cc1OC` (stereo unspecified) the “activity change, negative = cytotoxicity” value was inactive: 17.8%. For `CCOC(=O)c1noc2nc(C)n(Cc3cccc(C#N)c3)c(=O)c12`, the “activity change, negative = cytotoxicity” value was inactive: 1.72%. With `COc1cccc(Cc2nc3ccccc3nc2SCC(=O)NCc2ccc(C)cc2)c1` the “activity change, negative = cytotoxicity” value was inactive: 8.04%. In the case of `Cc1cccc(NC(=O)Cn2c(=O)ccc3cc(S(=O)(=O)N4CCCC4)ccc32)c1C`, the “activity change, negative = cytotoxicity” value was inactive: 7.53%. With `CC(=O)c1ccc(NC(=O)C2CCC(CNS(=O)(=O)c3cccs3)CC2)cc1` (stereo unspecified) the “activity change, negative = cytotoxicity” value was inactive: 17.2%. For `Cc1c(NC(=O)c2cc(-c3ccc(Cl)cc3)on2)c(=O)n(-c2ccccc2)n1C`, the “activity change, negative = cytotoxicity” value was inactive: 1.81%. For `CCOC(=O)c1[nH]c(C)c(CCC(=O)NCc2ccc(OC)cc2)c1C`, the “activity change, negative = cytotoxicity” value was inactive: 0.476%. With `COc1ccc(N2C(=O)CS(=O)(=O)C23C(=O)N(Cc2ccc(C)cc2)c2ccccc23)cc1Cl` (stereo unspecified) the “activity change, negative = cytotoxicity” value was inactive: 4.84%. For `COc1ccc(S(=O)(=O)Nc2ccc(-c3cn4ccsc4n3)cc2)cc1C`, the “activity change, negative = cytotoxicity” value was inactive: -0.517%. In the case of `COc1ccc(CCN2C(=O)c3oc4cc(C)cc(C)c4c(=O)c3C2c2ccccc2F)cc1OC` (stereo unspecified), the “activity change, negative = cytotoxicity” value was inactive: 3.68%. With `COc1cccc(-c2nnc(SCC(=O)NC3CCCCC3)o2)c1` the “activity change, negative = cytotoxicity” value was inactive: -1.23%. In the case of `CCOc1ccc(CCNC(=O)C2CCN(C(=O)c3cc4sccc4n3CC)CC2)cc1OCC`, the “activity change, negative = cytotoxicity” value was inactive: -13.6%. For `Cc1ccc(NC(=O)c2ccc(CN3C(=O)CCn4nc(C)cc43)cc2)c(Cl)c1`, the “activity change, negative = cytotoxicity” value was inactive: -10.3%. For `CC(=O)c1ccc(NS(=O)(=O)c2ccc(-c3cc(C)no3)s2)cc1`, the “activity change, negative = cytotoxicity” value was inactive: -4.73%. For `O=C(COc1ccccc1F)Nc1nnc(SCc2cc(=O)c3ccccc3[nH]2)s1`, the “activity change, negative = cytotoxicity” value was inactive: 0.453%. With `Cc1cccc(CSc2nc(-c3cccs3)ccc2C#N)c1` the “activity change, negative = cytotoxicity” value was inactive: 9.91%. With `COc1ccc(NC(=O)C2CCCN(S(=O)(=O)c3ccc4c(c3)oc(=O)n4C)C2)c(OC)c1` (stereo unspecified) the “activity change, negative = cytotoxicity” value was inactive: 1.24%. With `Cc1c(NC(=O)c2cc(=O)c3ccccc3o2)c(=O)n(-c2ccccc2)n1C` the “activity change, negative = cytotoxicity” value was inactive: -0.682%. With `Cc1coc2c(C)c3oc(=O)c(CC(=O)NCCc4ccc(Cl)cc4)c(C)c3cc12` the “activity change, negative = cytotoxicity” value was inactive: 17.9%. For `COc1cccc(N2CCN(C(=O)c3cccn3-c3nnc(N4CCCC4)s3)CC2)c1`, the “activity change, negative = cytotoxicity” value was inactive: 0.217%. With `COCCCNC(=O)c1ccc(-n2c(-c3ccccc3)cc3c2CCC(C)C3)cc1` (stereo unspecified) the “activity change, negative = cytotoxicity” value was inactive: 7.58%. In the case of `COc1ccc(CCNC(=O)Cc2c(C)c3c(cc(C)c4c(C)c(C)oc43)oc2=O)cc1`, the “activity change, negative = cytotoxicity” value was inactive: 20.1%. With `Cc1ccc(CSc2oc(-c3cccs3)nc2S(=O)(=O)c2ccccc2)cc1` the “activity change, negative = cytotoxicity” value was inactive: 2.52%. For `COc1ccccc1N1CCN(c2ncc3c(n2)CCN(Cc2ccccc2F)C3)CC1`, the “activity change, negative = cytotoxicity” value was inactive: -3.17%. For `CC(=O)c1ccc(N2CCN(c3ncnc4c3nc3n4CCCC3)CC2)cc1`, the “activity change, negative = cytotoxicity” value was inactive: -11.2%. With `CCc1ccc(OCC(=O)N(Cc2ccc(C)o2)C2CCS(=O)(=O)C2)cc1` (stereo unspecified) the “activity change, negative = cytotoxicity” value was inactive: -3.8%. For `COc1ccc(CCNC(=O)c2cnn(-c3ccc(F)cc3)c2C2CCN(C(=O)OC(C)(C)C)CC2)c(OC)c1`, the “activity change, negative = cytotoxicity” value was inactive: -5.84%. For `CCc1ccccc1NC(=O)N1CCc2c([nH]c3ccccc23)C1c1ccc(C)cc1` (stereo unspecified), the “activity change, negative = cytotoxicity” value was inactive: -11%. In the case of `CCOC(=O)N1CCc2c(sc3c2c(=O)n(Cc2ccccc2)c(=O)n3Cc2ccccc2Cl)C1`, the “activity change, negative = cytotoxicity” value was inactive: 12.5%. For `Cc1ccc2ncc(C(=O)N3CCN(c4ccccc4F)CC3)c(=O)n2c1`, the “activity change, negative = cytotoxicity” value was inactive: 7.6%. For `O=C(NCCC1=CCCCC1)c1ccc2c(=O)n3nc(Nc4ccccc4)sc3nc2c1`, the “activity change, negative = cytotoxicity” value was inactive: -11.8%. With `COc1ccc(NC(=O)c2c(NC(=O)COc3ccccc3)sc3c2CCC(C)C3)cc1` (stereo unspecified) the “activity change, negative = cytotoxicity” value was inactive: 6.33%. In the case of `O=C(Nc1ccccc1C(F)(F)F)c1ccc2oc(=O)c(S(=O)(=O)c3ccc(F)cc3)cc2c1`, the “activity change, negative = cytotoxicity” value was inactive: 3.41%. With `COc1ccc(-c2noc(CCC(=O)Nc3ccc(C(F)(F)F)cc3)n2)cc1` the “activity change, negative = cytotoxicity” value was inactive: -16.1%. For `Cc1ccccc1CNC(=O)CN1C(=O)CSc2ccc(S(=O)(=O)N(C)C)cc21`, the “activity change, negative = cytotoxicity” value was inactive: 26.5%. For `Cc1ccc(NC(=O)CSc2nnc3[nH]c(=O)cc(-c4ccccc4)n23)cc1Cl`, the “activity change, negative = cytotoxicity” value was inactive: 5.41%. For `COCCCNC(=O)c1cn(CCOC)c(=O)c2c1c1ccccc1n2C`, the “activity change, negative = cytotoxicity” value was inactive: -1.04%. With `Cc1ccc(NC(=O)CC(C)S(=O)(=O)c2ccc3c(c2)NC(=O)CO3)c(Cl)c1` (stereo unspecified) the “activity change, negative = cytotoxicity” value was inactive: 12.1%. In the case of `CC(C)c1ccc2oc(-c3ccc(NC(=O)c4cccc(Br)c4)cc3)nc2c1`, the “activity change, negative = cytotoxicity” value was inactive: 5.05%. For `Cc1ccccc1Cn1c2ccccc2c2cnn(CC(=O)NC3CCC(C)CC3)c(=O)c21` (stereo unspecified), the “activity change, negative = cytotoxicity” value was inactive: 21.8%. In the case of `COc1cc2c(=O)n(CCC(=O)NCC3CCCO3)c(=O)n(CC(=O)Nc3ccc(C)cc3C)c2cc1OC` (stereo unspecified), the “activity change, negative = cytotoxicity” value was inactive: 1.47%. In the case of `COc1cc(NC(=O)C(CC(C)C)NS(=O)(=O)c2ccc3c(c2)CCN3C(C)=O)cc(OC)c1` (stereo unspecified), the “activity change, negative = cytotoxicity” value was inactive: 5.98%. In the case of `CCc1ccc(CNCc2c(C(=O)O)n(Cc3ccc(C)cc3)c3cc(C)ccc23)cc1`, the “activity change, negative = cytotoxicity” value was inactive: 3.21%. In the case of `CCCCCCSc1nnc2c(n1)OC(C)Nc1ccc(Br)cc1-2` (stereo unspecified), the “activity change, negative = cytotoxicity” value was inactive: 1.4%. In the case of `Cc1c(C(=O)Nc2cccc(-c3nc4ccccc4s3)c2)oc2ccccc12`, the “activity change, negative = cytotoxicity” value was inactive: 15.6%. For `CCOc1ccc2nc(N3CCCC(C(=O)Nc4cc(Cl)c(OC)cc4OC)C3)sc2c1` (stereo unspecified), the “activity change, negative = cytotoxicity” value was inactive: -3.64%. For `COc1ccc(CNC(=O)c2ccc(NC(=O)N3CCSc4ccccc43)cc2)cc1`, the “activity change, negative = cytotoxicity” value was inactive: 6.51%. In the case of `CCOC(=O)c1ccccc1NC(=O)COc1ccccc1-c1nnc(-c2ccccc2)o1`, the “activity change, negative = cytotoxicity” value was inactive: -14.8%. For `Cc1cccc(-n2ncc3c(N4CCCC(C)C4)ncnc32)c1` (stereo unspecified), the “activity change, negative = cytotoxicity” value was inactive: -0.221%. In the case of `C#CCOc1ccc(C2CC(=O)Nc3c2c(C)nn3-c2nc(C)cc(C)n2)cc1` (stereo unspecified), the “activity change, negative = cytotoxicity” value was inactive: -7.32%. With `Cc1ccc(Cn2ccnc2SCC(=O)Nc2nc3ccccc3s2)cc1` the “activity change, negative = cytotoxicity” value was inactive: 10.9%. With `NS(=O)(=O)c1ccc(NC(=O)C(=O)Nc2ccc3nc4n(c(=O)c3c2)CCCCC4)cc1` the “activity change, negative = cytotoxicity” value was inactive: 8.41%.
